From PMC12820563, “FoxP3 forms a head-to-head dimer in vivo and stabilizes its multimerization on adjacent microsatellites” come the findings set out here.

This is one part of the list.

In this experiment the target is T1, MBP-FoxP1dN (Mus musculus, UniProt P58462 326-579).
T1 sequence: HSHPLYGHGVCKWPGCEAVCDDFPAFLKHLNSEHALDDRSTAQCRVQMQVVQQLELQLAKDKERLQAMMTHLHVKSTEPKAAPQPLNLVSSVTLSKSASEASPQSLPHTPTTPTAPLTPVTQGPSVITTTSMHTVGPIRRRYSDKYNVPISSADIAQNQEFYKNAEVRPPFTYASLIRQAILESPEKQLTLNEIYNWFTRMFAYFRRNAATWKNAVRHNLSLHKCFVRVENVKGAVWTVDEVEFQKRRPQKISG
In words: PD-seq (MBP pull-down with sequencing); 20 mM Tris-HCl pH 7.5, 100 mM NaCl, 1.5 mM MgCl2, 0.4 uM protein, 0.1 uM dsDNA library, 30 min, room temperature, amylose pull-down; high values mean tight binding. The settings on record: protein: recombinant; tags: His6-MBP; chain copies: 2; dsDNA, one strand shown. The method in brief: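 The N-terminus-lacking fragment of mouse FoxP3 or FoxP1 carried a His6-MBP tag and was expressed in E. coli. At 0.4 µM it was incubated with 0.1 µM Klenow-filled degenerate double-stranded DNA library for 30 min at room temperature in Tris pH 7.5 buffer with NaCl and MgCl2, and complexes were caught on amylose resin, washed three times, released with proteinase K, PCR-barcoded and Illumina-sequenced. Binding is reads-per-million enrichment of pull-down over input with replicates pooled.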
With “GATGATTGTTCTCCCAGCTGATGAATTGTAAAAGTCGAGTAAACAAATTTTCCTAATCTTTCTGTTCAAGCGCCATCTAC”, the binding signal was 0.943 RPM ratio (pull-down/input).

Regarding “GATGATTGTTCTCCCAGCTGATGAATTCAGTTGGTCGAGTAAACAAATTTTCCTAATCTTTCTGTTCAAGCGCCATCTAC”, the binding signal was 0.951 RPM ratio (pull-down/input). Regarding “GATGATTGTTCTCCCAGCTGATGAATTAGGAGCATCGAGTAAACAAATTTTCCTAATCTTTCTGTTCAAGCGCCATCTAC”, the binding signal is 1.07 RPM ratio (pull-down/input). Consider “GATGATTGTTCTCCCAGCTGATGAATTAGATCGGTCGAGTAAACAAATTTTCCTAATCTTTCTGTTCAAGCGCCATCTAC”, for which the binding signal was 0.789 RPM ratio (pull-down/input).

Consider “GATGATTGTTCTCCCAGCTGATGAATTTCCTGACTCGAGTAAACAAATTTTCCTAATCTTTCTGTTCAAGCGCCATCTAC”, for which the binding signal was 0.753 RPM ratio (pull-down/input). The same measure for “GATGATTGTTCTCCCAGCTGATGAATTTCTTCCATCGAGTAAACAAATTTTCCTAATCTTTCTGTTCAAGCGCCATCTAC”: 0.861 RPM ratio (pull-down/input); for “GATGATTGTTCTCCCAGCTGATGAATTTCGATATTCGAGTAAACAAATTTTCCTAATCTTTCTGTTCAAGCGCCATCTAC”: 0.941 RPM ratio (pull-down/input); for “GATGATTGTTCTCCCAGCTGATGAATTAGTGTGTTCGAGTAAACAAATTTTCCTAATCTTTCTGTTCAAGCGCCATCTAC”: 1.35 RPM ratio (pull-down/input).

“GATGATTGTTCTCCCAGCTGATGAATTGAAAATCTCGAGTAAACAAATTTTCCTAATCTTTCTGTTCAAGCGCCATCTAC”: the binding signal was 0.791 RPM ratio (pull-down/input). The same measure for “GATGATTGTTCTCCCAGCTGATGAATTTCTGCCTTCGAGTAAACAAATTTTCCTAATCTTTCTGTTCAAGCGCCATCTAC”: 0.937 RPM ratio (pull-down/input); for “GATGATTGTTCTCCCAGCTGATGAATTAGACCGGTCGAGTAAACAAATTTTCCTAATCTTTCTGTTCAAGCGCCATCTAC”: 0.822 RPM ratio (pull-down/input). The same measure for “GATGATTGTTCTCCCAGCTGATGAATTCCCATTATCGAGTAAACAAATTTTCCTAATCTTTCTGTTCAAGCGCCATCTAC”: 0.922 RPM ratio (pull-down/input). For “GATGATTGTTCTCCCAGCTGATGAATTGAAGAAATCGAGTAAACAAATTTTCCTAATCTTTCTGTTCAAGCGCCATCTAC”, the binding signal is 1.01 RPM ratio (pull-down/input). Regarding “GATGATTGTTCTCCCAGCTGATGAATTTACAAACTCGAGTAAACAAATTTTCCTAATCTTTCTGTTCAAGCGCCATCTAC”, the binding signal was 1.47 RPM ratio (pull-down/input). For “GATGATTGTTCTCCCAGCTGATGAATTCTTAAAATCGAGTAAACAAATTTTCCTAATCTTTCTGTTCAAGCGCCATCTAC”, the binding signal is 0.935 RPM ratio (pull-down/input). Take “GATGATTGTTCTCCCAGCTGATGAATTTACGCGGTCGAGTAAACAAATTTTCCTAATCTTTCTGTTCAAGCGCCATCTAC”: the binding signal is 1.04 RPM ratio (pull-down/input). In the case of “GATGATTGTTCTCCCAGCTGATGAATTCATCAACTCGAGTAAACAAATTTTCCTAATCTTTCTGTTCAAGCGCCATCTAC” it was 1.03 RPM ratio (pull-down/input); in that of “GATGATTGTTCTCCCAGCTGATGAATTATTTCCATCGAGTAAACAAATTTTCCTAATCTTTCTGTTCAAGCGCCATCTAC”, 1.12 RPM ratio (pull-down/input); in that of “GATGATTGTTCTCCCAGCTGATGAATTTTCCAATTCGAGTAAACAAATTTTCCTAATCTTTCTGTTCAAGCGCCATCTAC”, 1.03 RPM ratio (pull-down/input). Take “GATGATTGTTCTCCCAGCTGATGAATTCTGAGGTTCGAGTAAACAAATTTTCCTAATCTTTCTGTTCAAGCGCCATCTAC”: the binding signal is 0.731 RPM ratio (pull-down/input).

In the case of “GATGATTGTTCTCCCAGCTGATGAATTCGCGTAGTCGAGTAAACAAATTTTCCTAATCTTTCTGTTCAAGCGCCATCTAC”, the binding signal was 0.866 RPM ratio (pull-down/input). Turning to “GATGATTGTTCTCCCAGCTGATGAATTCGCCTAGTCGAGTAAACAAATTTTCCTAATCTTTCTGTTCAAGCGCCATCTAC”, the binding signal is 0.725 RPM ratio (pull-down/input). The same measure for “GATGATTGTTCTCCCAGCTGATGAATTTTCGTTATCGAGTAAACAAATTTTCCTAATCTTTCTGTTCAAGCGCCATCTAC”: 1.07 RPM ratio (pull-down/input); for “GATGATTGTTCTCCCAGCTGATGAATTTGTTTGTTCGAGTAAACAAATTTTCCTAATCTTTCTGTTCAAGCGCCATCTAC”: 2.73 RPM ratio (pull-down/input). Take “GATGATTGTTCTCCCAGCTGATGAATTGGAGTCATCGAGTAAACAAATTTTCCTAATCTTTCTGTTCAAGCGCCATCTAC”: the binding signal is 0.884 RPM ratio (pull-down/input).

For the sequence “GATGATTGTTCTCCCAGCTGATGAATTCCGACTATCGAGTAAACAAATTTTCCTAATCTTTCTGTTCAAGCGCCATCTAC”, the binding signal was 0.937 RPM ratio (pull-down/input). In the case of “GATGATTGTTCTCCCAGCTGATGAATTCGTTAGGTCGAGTAAACAAATTTTCCTAATCTTTCTGTTCAAGCGCCATCTAC” it was 0.805 RPM ratio (pull-down/input); in that of “GATGATTGTTCTCCCAGCTGATGAATTGAGGTTGTCGAGTAAACAAATTTTCCTAATCTTTCTGTTCAAGCGCCATCTAC”, 1.06 RPM ratio (pull-down/input). Consider “GATGATTGTTCTCCCAGCTGATGAATTGCTTCCATCGAGTAAACAAATTTTCCTAATCTTTCTGTTCAAGCGCCATCTAC”, for which the binding signal was 1.13 RPM ratio (pull-down/input).

Turning to “GATGATTGTTCTCCCAGCTGATGAATTGGCCACGTCGAGTAAACAAATTTTCCTAATCTTTCTGTTCAAGCGCCATCTAC”, the binding signal is 0.873 RPM ratio (pull-down/input). In the case of “GATGATTGTTCTCCCAGCTGATGAATTGTCTGTCTCGAGTAAACAAATTTTCCTAATCTTTCTGTTCAAGCGCCATCTAC” it was 0.904 RPM ratio (pull-down/input). Consider “GATGATTGTTCTCCCAGCTGATGAATTCTTTTCGTCGAGTAAACAAATTTTCCTAATCTTTCTGTTCAAGCGCCATCTAC”, for which the binding signal is 0.911 RPM ratio (pull-down/input).

For the sequence “GATGATTGTTCTCCCAGCTGATGAATTCCAAGTTTCGAGTAAACAAATTTTCCTAATCTTTCTGTTCAAGCGCCATCTAC”, the binding signal is 0.893 RPM ratio (pull-down/input). The same measure for “GATGATTGTTCTCCCAGCTGATGAATTTTAAAACTCGAGTAAACAAATTTTCCTAATCTTTCTGTTCAAGCGCCATCTAC”: 0.961 RPM ratio (pull-down/input); for “GATGATTGTTCTCCCAGCTGATGAATTATGCCGATCGAGTAAACAAATTTTCCTAATCTTTCTGTTCAAGCGCCATCTAC”: 1.02 RPM ratio (pull-down/input).

Consider “GATGATTGTTCTCCCAGCTGATGAATTCTAGGGATCGAGTAAACAAATTTTCCTAATCTTTCTGTTCAAGCGCCATCTAC”, for which the binding signal was 0.932 RPM ratio (pull-down/input).

For “GATGATTGTTCTCCCAGCTGATGAATTGTTGGTTTCGAGTAAACAAATTTTCCTAATCTTTCTGTTCAAGCGCCATCTAC”, the binding signal was 1.89 RPM ratio (pull-down/input).

Take “GATGATTGTTCTCCCAGCTGATGAATTGCAGTTCTCGAGTAAACAAATTTTCCTAATCTTTCTGTTCAAGCGCCATCTAC”: the binding signal was 1.06 RPM ratio (pull-down/input). Take “GATGATTGTTCTCCCAGCTGATGAATTCCCGTGTTCGAGTAAACAAATTTTCCTAATCTTTCTGTTCAAGCGCCATCTAC”: the binding signal is 0.867 RPM ratio (pull-down/input). Turning to “GATGATTGTTCTCCCAGCTGATGAATTCCCATATTCGAGTAAACAAATTTTCCTAATCTTTCTGTTCAAGCGCCATCTAC”, the binding signal is 0.903 RPM ratio (pull-down/input).
